For 60 compounds, relative growth results are on record in the supplement of paper PMC9446081.

Hit rate of the full screen: of about 39,000 compounds, about 220 (0.56%) showed activity. This is one part of the list.
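Further: static incubation at 37 °C against the wild-type strain, values averaged over two biological replicates.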

The experiment has as its system Escherichia coli K-12 BW25113. The experiment can be described thus: relative growth (OD600 normalised to plate interquartile mean) (fraction); higher = less growth inhibition, active = 0.2 or less. The note with it: 50 µM; LB; incubation time: overnight (16-24 h).
Consider `Cc1ccc(S(=O)(=O)N(C)C[C@@H]2Oc3ccc(NC(=O)NC(C)C)cc3CC(=O)N([C@@H](C)CO)C[C@H]2C)cc1`, for which the relative growth is inactive: 0.996.
For the compound `Cc1ccc(S(=O)(=O)N(C)C[C@@H]2Oc3c(NC(=O)NC(C)C)cccc3C(=O)N([C@@H](C)CO)C[C@@H]2C)cc1`, the relative growth is inactive: 0.964.
In the case of `C[C@H](CO)N1C[C@H](C)[C@@H](CN(C)Cc2ccc(C(F)(F)F)cc2)Oc2ccc(NC(=O)Nc3ccc(F)cc3)cc2CC1=O`, the relative growth is inactive: 1.02.
Take `O=C(C[C@@H]1C[C@@H]2c3cc(NC(=O)Nc4ccccc4)ccc3O[C@@H]2[C@@H](CO)O1)NCCN1CCCCC1`: the relative growth is inactive: 0.999.
With `COc1ccccc1C(=O)Nc1ccc2c(c1)C(=O)N(C)[C@H]1CC[C@@H](CC(=O)NCCc3ccncc3)O[C@H]1CO2`, the relative growth is inactive: 0.956.
For `N[C@@H]1CN(c2c(F)cc3c(=O)c(C(=O)O)cn([C@@H]4C[C@@H]4F)c3c2Cl)CC12CC2`, the relative growth was active: 0.0347.
In the case of `COc1ccc(CN(C)C[C@H]2OCCCC[C@@H](C)Oc3ccc(NC(=O)Nc4ccccc4)cc3C(=O)N([C@H](C)CO)C[C@@H]2C)cc1`, the relative growth was inactive: 1.
On to `Cc1ccc(S(=O)(=O)N(C)C[C@@H]2OCCCC[C@H](C)Oc3ccc(NS(=O)(=O)c4ccc(Cl)cc4)cc3C(=O)N([C@H](C)CO)C[C@H]2C)cc1`, for which the relative growth is inactive: 1.01.
Consider `C[C@@H]1CN([C@H](C)CO)C(=O)Cc2cc(NC(=O)Nc3ccc(C(F)(F)F)cc3)ccc2O[C@H]1CN(C)Cc1ccc(-c2ccccc2)cc1`, for which the relative growth is inactive: 1.01.
The same measure for `COCC(=O)N1C[C@H](C)[C@@H](OC)CN(C)C(=O)c2ccc(NC(=O)c3ccc(F)cc3)cc2OC[C@@H]1C`: inactive: 1.
`C[C@H]1CN([C@@H](C)CO)C(=O)CCCn2cc(nn2)CO[C@@H]1CN(C)S(=O)(=O)c1ccc(Oc2ccccc2)cc1`: the relative growth is inactive: 0.999.
Under `Cn1nnnc1-c1ccco1` stands inactive: 1.05; under `C[C@H](CO)N1C[C@H](C)[C@@H](CN(C)Cc2ccc(F)cc2)OCc2ccccc2-c2c(n(C)c3ccccc23)C1=O`, inactive: 0.992; under `CCS(=O)(=O)c1ccccc1C(N)=O`, inactive: 0.988.
Consider `C[C@@H]1CN([C@@H](C)CO)C(=O)Cc2cc(NC(=O)Nc3ccc(F)cc3)ccc2O[C@@H]1CN(C)S(=O)(=O)c1cn(C)cn1`, for which the relative growth was inactive: 1.02.
For `Cc1noc(C)c1NC(=O)Nc1ccc2c(c1)CC(=O)N([C@@H](C)CO)C[C@H](C)[C@H](CN(C)Cc1ccc(Oc3ccccc3)cc1)O2`, the relative growth was inactive: 0.992.
As to `C[C@H](CO)N1C[C@H](C)[C@H](CN(C)Cc2ccc(C(F)(F)F)cc2)Oc2ccc(NC(=O)Cc3ccccc3)cc2CC1=O`, the relative growth was inactive: 1.01.
With `Cc1ccc(S(=O)(=O)Nc2ccc3c(c2)C(=O)N([C@H](C)CO)C[C@H](C)[C@@H](CN(C)Cc2ccc(Oc4ccccc4)cc2)O3)cc1`, the relative growth was inactive: 0.938.
Turning to `C[C@@H]1CN([C@@H](C)CO)C(=O)c2cccc(NC(=O)NC3CCCCC3)c2O[C@@H]1CN(C)C(=O)Nc1cccc2ccccc12`, the relative growth was inactive: 1.03.
Under `Cc1noc(C)c1NC(=O)N(C)C[C@H]1Oc2c(NS(=O)(=O)c3c(C)noc3C)cccc2C(=O)N([C@@H](C)CO)C[C@H]1C` stands inactive: 1.02.
Regarding `CC(=O)N(C)C[C@H]1Oc2ncc(C#C[C@H](C)O)cc2C(=O)N([C@@H](C)CO)C[C@@H]1C`, the relative growth was inactive: 0.993.
Consider `C[C@H](CO)N1C[C@H](C)[C@@H](CN(C)S(=O)(=O)c2ccccc2)Oc2c(NC(=O)c3cnccn3)cccc2C1=O`, for which the relative growth is inactive: 1.01.
In the case of `C[C@H]1CN([C@@H](C)CO)C(=O)Cc2cc(NC(=O)C3CCCCC3)ccc2O[C@H]1CN(C)Cc1ccc(Cl)c(Cl)c1`, the relative growth was inactive: 1.01.
Take `C[C@@H]1CCCCO[C@H](CN(C)Cc2ccc3c(c2)OCO3)[C@@H](C)CN([C@H](C)CO)C(=O)c2cc(NC(=O)Nc3ccc4c(c3)OCO4)ccc2O1`: the relative growth is inactive: 0.979.
Turning to `COc1ccc(CCN(C)CCCOc2ccc(S(=O)(=O)c3c(C(C)C)c4ccccc4n3C)cc2)cc1OC`, the relative growth is inactive: 1.01.
For the compound `Cn1c(=O)c2c(nc(NCCN)n2C)n(C)c1=O`, the relative growth was inactive: 1.01.
Turning to `C[C@H](CO)N1C[C@H](C)[C@@H](CN(C)C(=O)Nc2ccc(C(F)(F)F)cc2)Oc2ccc(NS(C)(=O)=O)cc2C1=O`, the relative growth was inactive: 0.962.
Turning to `CC(C)(C)[S@@](=O)N1Cc2cc(C(=O)NCc3ccc4c(c3)OCO4)nc(CCNS(=O)(=O)c3ccccc3)c2[C@H]1CCO`, the relative growth is inactive: 1.02.
`CN(C(=O)C(Cl)Cl)c1ccc(OC(=O)c2ccco2)cc1`: the relative growth is inactive: 1.01.
Turning to `C[C@H](CO)N1C[C@H](C)[C@@H](CN(C)C(=O)c2ccncc2)OCCCC[C@H](C)Oc2ccc(NC(=O)NC3CCCCC3)cc2C1=O`, the relative growth is inactive: 0.986.
In the case of `C[C@H](CO)N1C[C@H](C)[C@H](CN(C)C(=O)C2CCCCC2)OCCCC[C@H](C)Oc2ccc(NS(=O)(=O)c3ccc(Cl)cc3)cc2C1=O`, the relative growth was inactive: 1.01.
For `C=CCOC(=O)[C@@H]1[C@H]2C(=O)O[C@H](c3ccccc3)[C@H](c3ccccc3)N2[C@H](c2ccc(OCCOC(=O)[C@@H]3C[C@@H]4C(=O)N[C@@H](CC(C)C)C(=O)N4[C@@H]3c3ccc(O)cc3)cc2)[C@@]12C(=O)Nc1ccccc12`, the relative growth was inactive: 1.07.
Turning to `C[C@@H]1CCCCO[C@@H](CN(C)Cc2ccc(Cl)c(Cl)c2)[C@H](C)CN([C@H](C)CO)C(=O)c2cc(NC(=O)Nc3ccc(F)cc3)ccc2O1`, the relative growth is inactive: 1.03.
Take `Cc1c(C#N)c(Sc2ccccc2Cl)nc2ccccc12`: the relative growth is inactive: 0.955.
Consider `COC1CCNCC1`, for which the relative growth was inactive: 0.986.
With `CC(C)NC(=O)N(C)C[C@H]1Oc2ccc(NS(=O)(=O)c3ccccc3)cc2C(=O)N([C@@H](C)CO)C[C@@H]1C`, the relative growth is inactive: 1.03.
Turning to `C[C@H]1CN([C@@H](C)CO)C(=O)Cc2cc(NC(=O)CCCCCC(=O)Nc3ccccc3N)ccc2O[C@H]1CN(C)S(=O)(=O)c1cn(C)cn1`, the relative growth was inactive: 1.02.
In the case of `C[C@@H]1CN([C@@H](C)CO)C(=O)c2cccc(NS(=O)(=O)c3ccc(F)cc3)c2O[C@@H]1CN(C)Cc1ccc(Cl)c(Cl)c1`, the relative growth is inactive: 0.987.
On to `C[C@H](CO)N1C[C@H](C)[C@H](CN(C)C(=O)Nc2ccc(F)cc2)OCc2ccccc2-c2c(n(C)c3ccccc23)C1=O`, for which the relative growth was inactive: 1.04.
The same measure for `CN1C(=O)NC2(CCNCC2)C1=O`: inactive: 1.03; for `CC(C)C(=O)NC1=N[C@H]2[C@@H](N=CN2[C@H]2C[C@@H](O)[C@@H](CO)O2)C(=O)N1`: inactive: 0.996.
Take `Cc1ccc(S(=O)(=O)N(C)C[C@H]2Oc3ccc(NS(=O)(=O)c4c(C)noc4C)cc3C(=O)N([C@H](C)CO)C[C@H]2C)cc1`: the relative growth was inactive: 1.05.
With `O=C(CN1CCOCC1)NCC[C@H]1CC[C@@H](NS(=O)(=O)c2ccc(F)cc2)[C@@H](CO)O1`, the relative growth was inactive: 1.01.
As to `C[C@@H]1CCCCO[C@H](CN(C)Cc2ccc(C(F)(F)F)cc2)[C@H](C)CN([C@@H](C)CO)C(=O)c2cc(NS(=O)(=O)c3ccc(F)cc3)ccc2O1`, the relative growth is inactive: 1.04.
As for `C[C@H]1CN([C@@H](C)CO)C(=O)c2cc(C#CC3(O)CCCC3)cnc2O[C@H]1CN(C)S(=O)(=O)c1ccc(F)cc1`, the relative growth is inactive: 0.997.
`C[C@@H]1CN([C@@H](C)CO)C(=O)c2cc(NC(=O)Nc3ccc4c(c3)OCO4)ccc2O[C@@H](C)CCCCO[C@H]1CN(C)C(=O)Nc1cccc2ccccc12`: the relative growth is inactive: 1.03.
For the compound `COc1ccc(S(=O)(=O)N(C)C[C@H]2Oc3ccc(N(C)C)cc3C(=O)N([C@@H](C)CO)C[C@@H]2C)cc1`, the relative growth is inactive: 1.01.
As to `C[C@@H]1CN([C@@H](C)CO)C(=O)c2cc(NC(=O)c3ccccc3)ccc2O[C@@H](C)CCCCO[C@@H]1CN(C)S(=O)(=O)c1ccccc1`, the relative growth was inactive: 1.
With `COc1cccc2c1C(=O)c1c(O)c3c(c(O)c1C2=O)C[C@](O)(C(C)=O)C[C@H]3O[C@H]1C[C@@H](N)[C@@H](O)[C@@H](C)O1`, the relative growth is inactive: 0.924.
Take `C[C@@H]1CN([C@H](C)CO)C(=O)c2cc(NC(=O)Nc3cccc4ccccc34)ccc2O[C@@H](C)CCCCO[C@H]1CN(C)S(=O)(=O)c1ccc(Cl)cc1`: the relative growth was inactive: 1.03.
Regarding `C[C@H]1CN([C@@H](C)CO)C(=O)c2cccc(NC(=O)c3nc4ccccc4s3)c2O[C@H]1CN(C)C(=O)Nc1ccc(C(F)(F)F)cc1`, the relative growth was inactive: 1.
For `Cc1ccc(S(=O)(=O)N2CCNCC2)cc1`, the relative growth is inactive: 0.981.
`Cc1noc(C)c1S(=O)(=O)N(C)C[C@H]1Oc2ccc(NS(=O)(=O)c3ccc(Cl)cc3)cc2C(=O)N([C@@H](C)CO)C[C@H]1C`: the relative growth was inactive: 1.01.
Turning to `NC(=S)N[C@H]1CCS(=O)(=O)C1`, the relative growth was inactive: 1.03.
As to `C[C@@H]1CN([C@H](C)CO)C(=O)Cc2cc(NC(=O)Cn3cnnn3)ccc2O[C@@H]1CN(C)Cc1ccccc1`, the relative growth was inactive: 0.974.
Take `CC1(C)OCC(CO)([N+](=O)[O-])CO1`: the relative growth was inactive: 0.969.
`Cc1noc(C)c1S(=O)(=O)Nc1ccc2c(c1)CC(=O)N([C@H](C)CO)C[C@H](C)[C@@H](CN(C)Cc1ccc(-c3ccccc3)cc1)O2`: the relative growth was inactive: 1.02.
Consider `COc1ccc(CNC(=O)N(C)C[C@@H]2OCc3ccccc3-c3c(n(C)c4ccccc34)C(=O)N([C@@H](C)CO)C[C@H]2C)cc1`, for which the relative growth is inactive: 0.996.
`Nc1nnc(SC[C@@H](O)CO)s1`: the relative growth was inactive: 1.
As to `COc1ccc(CCNC(=O)[C@@]2(Sc3ccc(C)cc3)CC(=O)N(Cc3cc(C(F)(F)F)cc(C(F)(F)F)c3)[C@@H]2c2ccc(CO)cc2I)cc1`, the relative growth is inactive: 0.958.
